# The supplement of paper PMC10126150
# Sequences with one replicate were seen in a single cluster, so their values are uncertain.
# System: ATP
# Assay: switch fluorescence ratio, 500 uM ATP over buffer (Cy3 cluster intensity, sum of 5 cycles each) (fold (ratio)); higher = stronger signal-on switching upon ATP binding; sequences stand for … in TCGTCGGCAGCGTCAGATGTGTATAAGAGACAGTTTTTTTTTTTTTTTTTTTTTTTTT…TC
# Settings: aptamer strand: ATP DNA aptamer (quencher-CACCTGGGGGAGTATTGCGGAGGAAGG + anchor), 100 nM annealed; ATP concentration: 500 uM; one replicate
# Procedure, shortened: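 Imaging in selection buffer was followed by imaging after 15 min with 500 uM ATP at 22 °C, for Cy3-labelled switching-strand clusters annealed to 100 nM quencher-labelled ATP aptamer on a modified Illumina MiSeq flow-cell. Five of these buffer/ATP cycles ran, separated by NaOH stripping and re-annealing. The fluorescence ratio per cluster is summed target-cycle over summed buffer-cycle Cy3 intensity, averaged per switch-domain sequence; clusters outside 100-1000 RFU were removed.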
# 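Further: ATP exposure 15 min at 22 °C before imaging.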
row,Sequence,switch fluorescence ratio
1,GTTTCTCCT,1.04
2,GTTTCTTTTT,1.02
3,GTTTGACCGT,0.948
4,GTTTGAGATC,1
5,GTTTGAGTGG,0.975
6,GTTTGATCCT,0.994
7,GTTTGCACGC,1.06
8,GTTTGCCTAC,1.08
9,GTTTGGACAT,0.996
10,GTTTGGAGCC,1.01
11,GTTTGGTAAT,0.99
12,GTTTGTGCTA,0.971
13,GTTTGTTCAT,0.978
14,GTTTTACTGT,0.989
15,GTTTTATAGT,1
16,GTTTTATGTG,0.989
17,GTTTTCAGAC,1.02
18,GTTTTGAAAT,1.05
19,GTTTTGCCCC,0.934
20,GTTTTGTAGG,0.977
21,GTTTTTAAAT,0.993
22,GTTTTTAGTC,0.954
23,TAAAAATTAG,0.969
24,TAAAACATGA,0.943
25,TAAAACGGAT,1
26,TAAAAGCCGA,0.923

row,Sequence,switch fluorescence ratio
1,TAAAAGCGTA,1.03
2,TAAAAGCTTC,1.28
3,TAAAAGGTTC,1
4,TAAAATAGT,0.984
5,TAAACGAGCT,1.02
6,TAAACGCTTG,1
7,TAAACGGAAT,1.01
8,TAAACGGTTG,1.03
9,TAAACGTTT,1.02
10,TAAAGAATT,1
11,TAAAGCGAT,1.05
12,TAAAGTAACC,0.997
13,TAAAGTAGG,1.03
14,TAAAGTCCTT,0.95
15,TAAAGTGAAG,1.01
16,TAAAGTTGT,1.01
17,TAAAGTTGTA,1.01
18,TAAAGTTTTC,0.97
19,TAAATACGAG,1.06
20,TAAATAGTTA,0.971
21,TAAATCATAG,0.99
22,TAAATCCTAG,1.04
23,TAAATGCACA,1.04
24,TAAATGCGTC,1.08
25,TAAATTACAA,1.02
26,TAAATTAGTC,0.941

row,Sequence,switch fluorescence ratio
1,TAAATTCAGC,1
2,TAAATTGAAA,1.02
3,TAAATTTG,0.989
4,TAACAAGGGG,0.983
5,TAACAGGGTC,1.02
6,TAACATTCTT,1.06
7,TAACATTGAG,0.99
8,TAACATTTG,1.03
9,TAACCAGGAG,1.12
10,TAACCCATAC,1.28
11,TAACCCCCGC,1.7
12,TAACCCTATC,1.04
13,TAACGACGAT,1.05
14,TAACGCACTT,1.48
15,TAACGGGCGT,0.969
16,TAACGGTTGC,0.994
17,TAACGTAAC,1.45
18,TAACGTCCCG,1.04
19,TAACTCCCG,1.15
20,TAACTGTGTT,0.981
21,TAAGAGATTA,1.05
22,TAAGAGTCGA,1.02
23,TAAGAGTGGG,0.965
24,TAAGATCTTT,0.995
25,TAAGATGAGG,0.96
26,TAAGATGCAG,1.06

row,Sequence,switch fluorescence ratio
1,TAAGATGCCA,0.979
2,TAAGATGCG,0.991
3,TAAGATGCGC,0.997
4,TAAGATTTCA,1.07
5,TAAGCAAAGC,0.996
6,TAAGCACGCG,1.03
7,TAAGCAGGGA,1.02
8,TAAGCATACA,1.09
9,TAAGCATCCG,1.02
10,TAAGCCACAG,1.12
11,TAAGCCCGGA,1.03
12,TAAGCGAACG,1.13
13,TAAGCTTGCA,0.949
14,TAAGGAAAAC,1.05
15,TAAGGCCGTC,0.999
16,TAAGGCTATG,0.996
17,TAAGGCTCGC,1.03
18,TAAGGGACAA,1
19,TAAGGGTGG,0.964
20,TAAGGGTGT,1.06
21,TAAGGTAAGA,0.938
22,TAAGGTAATG,1.01
23,TAAGGTCAA,1.01
24,TAAGGTGGA,0.988
25,TAAGGTTGGA,1
26,TAAGTAATCA,1.02

row,Sequence,switch fluorescence ratio
1,TAAGTACCTC,1.27
2,TAAGTACGAT,1.28
3,TAAGTAGCTA,1
4,TAAGTCCATA,0.977
5,TAAGTCTACG,0.935
6,TAAGTCTATG,0.98
7,TAAGTGGCGT,0.969
8,TAAGTGTAAT,0.993
9,TAAGTTAAG,0.986
10,TAAGTTGGT,0.988
11,TAAGTTTCCA,0.937
12,TAATAAACAG,1.04
13,TAATACAAGC,1.03
14,TAATAGCCAC,1.02
15,TAATAGGATG,0.995
16,TAATATATTA,0.959
17,TAATATCGTA,0.993
18,TAATATGGAA,1.01
19,TAATATGTT,0.989
20,TAATATTGAC,1.01
21,TAATCACCGC,1.11
22,TAATCCCGCT,1.02
23,TAATCGGTCT,0.957
24,TAATCGTACC,1.08
25,TAATCTTTGA,0.988
26,TAATGAGATT,0.985

row,Sequence,switch fluorescence ratio
1,TAATGCCCG,0.979
2,TAATGGCCGC,0.973
3,TAATGGTATC,1.01
4,TAATGGTGGA,1.02
5,TAATGTCTGC,1.01
6,TAATGTGAGC,1.01
7,TAATGTTAGG,0.971
8,TAATGTTCGT,0.976
9,TAATGTTCTA,0.965
10,TAATGTTGTA,1.12
11,TAATTAAGAA,1.02
12,TAATTAAGTT,0.989
13,TAATTACGAT,1.03
14,TAATTAGACA,1.09
15,TAATTCAGAA,1.01
16,TAATTCAGTC,1.07
17,TAATTCCTTA,0.952
18,TAATTCGAAG,0.987
19,TAATTGGAGC,1.17
20,TAATTGTCTG,1
21,TAATTTCTAG,1.01
22,TACAACTAAA,1.03
23,TACAATAATC,1.04
24,TACAATGAGA,1.02
25,TACACAATTT,1.05
26,TACACATGCA,1.11

row,Sequence,switch fluorescence ratio
1,TACACATGGC,1.01
2,TACAGACTTA,1.02
3,TACAGAT,1.03
4,TACAGCAACA,1.14
5,TACAGCCTTA,1.03
6,TACAGCTTAG,1.04
7,TACAGGAGAA,1.04
8,TACAGGGCAG,1.03
9,TACAGTTTTC,1.01
10,TACATCATTT,1.02
11,TACATGGCGT,1.02
12,TACATGTTAA,1.03
13,TACATTTC,1.15
14,TACCACAGGC,1.13
15,TACCACATG,1.03
16,TACCACATTT,1.02
17,TACCAGGCCT,0.997
18,TACCCCAGCT,1.14
19,TACCCCGAAC,1.23
20,TACCGAGAAA,1.08
21,TACCGCAGAA,2.08
22,TACCGGGCTG,1.01
23,TACCGTTAGT,1.04
24,TACCGTTATT,1.05
25,TACCTAAGGC,1.14
26,TACCTCCCTT,0.97

row,Sequence,switch fluorescence ratio
1,TACCTGACTC,2.67
2,TACGAAATAG,1.1
3,TACGAACTGG,1.31
4,TACGAATAGC,1.12
5,TACGAATTCC,1.11
6,TACGACCAAC,1.76
7,TACGACGTG,1.02
8,TACGAGGTC,1.02
9,TACGATATTA,1.05
10,TACGATGCCC,1.06
11,TACGCAAGTA,1.17
12,TACGCACTTT,1.28
13,TACGCAGAGC,1.3
14,TACGCCGGGT,1.06
15,TACGCGGGGA,1.03
16,TACGCGTTAT,1.02
17,TACGGCCTGT,1.01
18,TACGGCCTTT,1.03
19,TACGGGCAGG,1
